Source: PMC4336329 (PLoS ONE, 2015)
Among all 310,000 compounds or so, about 14,000 (4.5%) showed an effect of 50% or more. Effects have a minus sign here. The list shows a part of the results.

molecular target: human ether-à-go-go-related gene (hERG) potassium channel (human, UniProt Q12809); experiment: primary screen, population patch clamp on CHO cells stably expressing hERG
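Further: peak tail current of the secondary pulse compared with the same well before compound.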

Chain of human ether-à-go-go-related gene (hERG) potassium channel (Q12809 whole entry, looked up): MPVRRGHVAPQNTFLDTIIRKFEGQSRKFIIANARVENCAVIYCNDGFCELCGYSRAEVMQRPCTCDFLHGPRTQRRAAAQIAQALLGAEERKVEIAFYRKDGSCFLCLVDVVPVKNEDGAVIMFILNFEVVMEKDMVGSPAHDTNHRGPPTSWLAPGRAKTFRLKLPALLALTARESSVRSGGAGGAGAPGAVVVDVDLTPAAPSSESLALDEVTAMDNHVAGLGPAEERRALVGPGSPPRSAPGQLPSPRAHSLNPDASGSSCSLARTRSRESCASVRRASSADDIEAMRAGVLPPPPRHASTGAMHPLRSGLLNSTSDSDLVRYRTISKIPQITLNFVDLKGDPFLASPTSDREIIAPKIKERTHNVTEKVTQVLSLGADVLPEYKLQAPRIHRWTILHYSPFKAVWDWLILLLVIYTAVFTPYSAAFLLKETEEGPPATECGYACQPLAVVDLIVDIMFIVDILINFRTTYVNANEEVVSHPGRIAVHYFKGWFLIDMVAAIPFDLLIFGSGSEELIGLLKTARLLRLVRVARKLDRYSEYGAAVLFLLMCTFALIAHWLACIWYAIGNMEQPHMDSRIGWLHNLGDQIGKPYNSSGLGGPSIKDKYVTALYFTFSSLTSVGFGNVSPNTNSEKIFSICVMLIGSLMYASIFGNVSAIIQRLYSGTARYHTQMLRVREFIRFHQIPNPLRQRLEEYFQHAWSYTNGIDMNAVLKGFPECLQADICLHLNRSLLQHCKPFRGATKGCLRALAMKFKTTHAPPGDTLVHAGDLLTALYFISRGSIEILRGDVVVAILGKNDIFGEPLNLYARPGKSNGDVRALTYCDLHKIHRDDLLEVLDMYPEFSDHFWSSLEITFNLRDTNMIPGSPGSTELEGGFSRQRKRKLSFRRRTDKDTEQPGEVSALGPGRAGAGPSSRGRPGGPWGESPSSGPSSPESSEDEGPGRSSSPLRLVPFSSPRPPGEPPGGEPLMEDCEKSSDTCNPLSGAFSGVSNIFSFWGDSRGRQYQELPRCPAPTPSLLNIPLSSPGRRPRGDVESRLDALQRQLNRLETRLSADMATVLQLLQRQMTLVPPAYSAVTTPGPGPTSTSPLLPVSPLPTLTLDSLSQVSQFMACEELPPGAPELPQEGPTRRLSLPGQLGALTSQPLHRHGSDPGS

In order of rising “hERG current change (%, negative = inhibition) at 10uM” value:
1. CCOc1ccccc1NC(=O)C(NCCN(C)C)c1ccccc1.O=C(O)C(=O)O (centres unmarked)  -76.4%
2. O=c1c2cc(NC(=S)NC3CCCCC3)ccc2nc2n1CCCCC2  -70.2%
3. Cn1c(CN2CCN(C(=O)c3ccccc3)CC2)nc2cc([N+](=O)[O-])ccc21  -67.3%
4. COc1ccc(NC(=O)CSc2nnc(-c3ccoc3C)n2CCc2ccccc2)cc1  -54.3%
5. CCOc1ccccc1N1CCN(CC(O)COc2ccc3c(C)cc(=O)oc3c2)CC1 (centres unmarked)  -53.1%
6. Cc1csc(CN(C)C(=O)C2CCC(=O)N(Cc3ccc(Cl)cc3)C2)n1 (centres unmarked)  -34%
7. Cc1ccc(S(=O)(=O)N(C)CC(=O)NCC(c2ccc(F)cc2)N2CCOCC2)cc1 (centres unmarked)  -27%
8. CCCSc1nc(O)c(C(c2ccc(OC)c(O)c2)c2c(O)nc(SCCC)n(C)c2=O)c(=O)n1C  -24.6%
9. CCOC(=O)c1cnn(C)c1NC(=O)c1ccc(Cl)cc1Cl  -24.5%
10. NC(=O)C1CCN(C(=O)c2ccc3ccccc3c2)CC1  -20.7%
11. CCNc1nc(Cl)nc(NCCOc2ccc(C)cc2)n1  -18.5%
12. CC(C)Nc1ncnc2c1cnn2Cc1ccc(Cl)cc1  -18.5%
13. Cc1ccc(S(=O)(=O)/N=C(/Nc2ccccn2)c2ccc(Cl)cc2)cc1  -18%
14. Oc1c(CN2CCc3ccccc3C2)cc(Cl)c2cccnc12  -18%
15. Cc1ccc(-c2csc(NC(=O)C3=COCCO3)n2)cc1C  -14.3%
16. CC(C)(C)NCc1cccn1-c1sc2c(c1C#N)CCCC2  -13.4%
17. Cc1cccc(NC(=O)c2ccccc2-c2ccccc2)c1  -13.2%
18. N#CCSc1nnc(C2CCCCC2)n1Cc1ccccc1  -11.6%
19. N#C/C(=C\c1ccc(OCc2ccccc2)cc1)C(N)=O  -11.1%
20. CN1CCN(C(=O)c2ccccc2NC(=O)c2ccc(C(C)(C)C)cc2)CC1  -9.21%
21. C[C@H](N)CN1CCc2ccc(Br)cc21.O=C(O)/C=C/C(=O)O  -8.16%
22. O=S(=O)(c1ccc(N2CCN(CCO)CC2)nc1)N1CCOCC1  -7.59%
23. COc1cccc(NC(=O)Cc2c(C(=O)O)[nH]c3ccccc23)c1  -6.37%
24. COc1ccccc1C1CCN(c2ccc([N+](=O)[O-])cn2)CC1  -5.84%
25. Cc1ccc(-n2nnnc2SCC(=O)N2CCCCC2)cc1  -3.3%
26. O=C(N/N=C/c1ccco1)c1cc(-c2ccc3ccccc3c2)n[nH]1  -3.17%
27. O=C(COc1ncnc2cc([N+](=O)[O-])ccc12)NC1CCCCC1  -2.76%
28. O=S(=O)(Cc1ccco1)Cc1nc(-c2ccc(Cl)cc2)cs1  -2.75%
29. Cc1ccc(C(=O)N2CCSC2=S)cc1  -1.95%
30. CC(C)(C)C1CCC(C(=O)Nc2ccccc2)CC1 (centres unmarked)  -1.77%
31. COCCCOc1ccnc(CS(=O)c2nc3ccccc3[n-]2)c1C.[Na+] (centres unmarked)  -1.59%
32. COc1ccccc1C(=O)NCC(=O)OC(C)C(=O)NC1CCCCC1C (centres unmarked)  -1.56%
33. CC(=O)c1ccc(N2CCN(c3ncccn3)CC2)cc1  -1.53%
34. O=C(Cn1c2c(c(-c3ccccc3)cc1=O)CCCC2)N1CCCCCC1  -0.417%
35. CCN(CC(=O)Nc1ccc2c(c1)OCCO2)C(=O)CC1CCCC1  0.281%
36. CN=C1S/C(=C\c2ccc(O)c(Br)c2)C(=O)N1C  0.575%
37. CN(c1ccccc1)S(=O)(=O)c1cccc(NC(=O)CN2C(=O)NC3(CCCCC3)C2=O)c1  1.3%
38. CCN(C(=O)Cn1cnc2ccccc2c1=O)C1CCS(=O)(=O)C1 (centres unmarked)  3.34%
39. COc1ccc(NC2=C(NCCO)C(=O)c3ccccc3C2=O)cc1  3.51%
40. CCOC(=O)c1c(C)oc2cc(Br)c(OC)cc12  4.28%
41. CC1CCCC(C)N1C(=O)COc1ccc(-c2nnco2)cc1 (centres unmarked)  4.45%
42. CSc1ccccc1NC(=O)CNCCCN1CCOCC1.O=C(O)C(=O)O  4.74%
43. COc1cccc(NC(=O)NCc2cccn2C)c1  5.27%
44. C/C(CC(=O)NCc1ccco1)=N\NC(=O)Cc1ccc(-c2ccccc2)cc1  5.55%
45. CCSc1nnc(NC(=O)C(NC(=O)c2ccc(Cl)cc2)C(C)C)s1 (centres unmarked)  6.2%
46. O=C1[C@@H]2CSCN2C(=O)CN1Cc1cccc(C(F)(F)F)c1  6.76%
47. N#Cc1c(NC(=O)c2cccnc2)sc2c1CCC2  6.82%
48. O=C(COC(=O)C1CCCCC1)Nc1cccc(Br)c1  7.75%
49. O=C(O)CC1=C(O)C(=O)N(c2ccccc2)C1c1ccc(Br)cc1 (centres unmarked)  9.1%
50. CCCCNS(=O)(=O)c1ccc2nc(-c3cccs3)cc(C(=O)NCC(OC)OC)c2c1  9.85%
51. Cc1nc([N+](=O)[O-])cn1CC(O)c1ccccc1 (centres unmarked)  10.2%
52. CN(CCCN1CCCCC1)C(=O)CCc1nnc(C2CCCCC2)o1  10.8%
53. CNc1nc(N)c([N+](=O)[O-])c(NCCO)n1  13.5%
54. COc1ccc(NC(=O)Cn2nnc(-c3ccccc3NC(=O)c3cccs3)n2)cc1  15.7%
55. Oc1ccc(Br)cc1/C=N/n1c(C2CCCCC2)n[nH]c1=S  18.9%
56. Cc1ccnc(N2C(=O)c3ccccc3C2=O)c1  19.1%
57. O=C(NC1CC1)c1ccc(NS(=O)(=O)c2ccccc2)cc1  23.9%
58. COc1ccc(NC(=O)c2ccco2)cc1NC(=O)c1ccccc1F  25.6%
59. O=C(Nc1nncs1)c1cc2c(s1)CCC2  27.4%
